# Laboratory results reported in the supplement of paper PMC8728848.
# The list shows a part of the results.
# Tests used:
# Assay in all cases: glycan array binding signal (z-score within array); higher = stronger binding
# Conditions in all cases: glycan notation: IUPAC condensed, linker removed
# [1] = target: Gal(b1-4)GlcNAc(b1-2)[Gal(b1-4)GlcNAc(b1-6)]Man(a1-6)[GlcNAc(b1-4)][Gal(b1-4)GlcNAc(b1-2)Man(a1-3)]Man(b1-4)GlcNAc(b1-4)GlcNAc
# Outline: (§1)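 The binding signal is a Z-score computed within each array and averaged over linkers. Arrays of the same protein sequence at different concentrations or buffers were also averaged together. Data originate from 3228 arrays in the Consortium for Functional Glycomics database, kept only where the protein sequence was available.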
# [2] = target: Gal(b1-4)GlcNAc(b1-2)[Gal(b1-4)GlcNAc(b1-6)]Man(a1-6)[GlcNAc(b1-4)][Gal(b1-4)GlcNAc(b1-2)[Gal(b1-4)GlcNAc(b1-4)]Man(a1-3)]Man(b1-4)GlcNAc(b1-4)[Fuc(a1-6)]GlcNAc
# Outline: as §1
# [3] = target: Gal(b1-4)GlcNAc(b1-3)Gal(b1-3)GalNAc
# Outline: as §1
# [4] = target: Gal(b1-4)GlcNAc(b1-3)Gal(b1-3)GlcNAc
# Outline: as §1
# [5] = target: Gal(b1-4)GlcNAc(b1-3)Gal(b1-4)Glc
# Outline: as §1
# [6] = target: Gal(b1-4)GlcNAc(b1-3)Gal(b1-4)GlcNAc
# Outline: as §1
# [7] = target: Gal(b1-4)GlcNAc(b1-3)Gal(b1-4)GlcNAc(b1-2)Man(a1-3)[Gal(b1-4)GlcNAc(b1-3)Gal(b1-4)GlcNAc(b1-2)Man(a1-6)]Man(b1-4)GlcNAc(b1-4)GlcNAc
# Outline: as §1
# [8] = target: Gal(b1-4)GlcNAc(b1-3)Gal(b1-4)GlcNAc(b1-2)Man(a1-3)[Gal(b1-4)GlcNAc(b1-3)Gal(b1-4)GlcNAc(b1-2)Man(a1-6)]Man(b1-4)GlcNAc(b1-4)[Fuc(a1-6)]GlcNAc
# Outline: as §1
# [9] = target: Gal(b1-4)GlcNAc(b1-3)Gal(b1-4)GlcNAc(b1-2)[Gal(b1-4)GlcNAc(b1-3)Gal(b1-4)GlcNAc(b1-6)]Man(a1-6)[Gal(b1-4)GlcNAc(b1-3)Gal(b1-4)GlcNAc(b1-2)Man(a1-3)]Man(b1-4)GlcNAc(b1-4)GlcNAc
# Outline: as §1
# [10] = target: Gal(b1-4)GlcNAc(b1-3)Gal(b1-4)GlcNAc(b1-2)[Gal(b1-4)GlcNAc(b1-3)Gal(b1-4)GlcNAc(b1-6)]Man(a1-6)[Gal(b1-4)GlcNAc(b1-3)Gal(b1-4)GlcNAc(b1-2)Man(a1-3)]Man(b1-4)GlcNAc(b1-4)[Fuc(a1-6)]GlcNAc
# Outline: as §1
# [11] = target: Gal(b1-4)GlcNAc(b1-3)Gal(b1-4)GlcNAc(b1-3)Gal(b1-4)GlcNAc
# Outline: as §1
# [12] = target: Gal(b1-4)GlcNAc(b1-3)Gal(b1-4)GlcNAc(b1-3)Gal(b1-4)GlcNAc(b1-2)Man(a1-3)[Gal(b1-4)GlcNAc(b1-3)Gal(b1-4)GlcNAc(b1-3)Gal(b1-4)GlcNAc(b1-2)Man(a1-6)]Man(b1-4)GlcNAc(b1-4)GlcNAc
# Outline: as §1
# [13] = target: Gal(b1-4)GlcNAc(b1-3)Gal(b1-4)GlcNAc(b1-3)Gal(b1-4)GlcNAc(b1-2)Man(a1-3)[Gal(b1-4)GlcNAc(b1-3)Gal(b1-4)GlcNAc(b1-3)Gal(b1-4)GlcNAc(b1-2)Man(a1-6)]Man(b1-4)GlcNAc(b1-4)[Fuc(a1-6)]GlcNAc
# Outline: as §1
# [14] = target: Gal(b1-4)GlcNAc(b1-3)Gal(b1-4)GlcNAc(b1-3)Gal(b1-4)GlcNAc(b1-2)[Gal(b1-4)GlcNAc(b1-3)Gal(b1-4)GlcNAc(b1-3)Gal(b1-4)GlcNAc(b1-6)]Man(a1-6)[Gal(b1-4)GlcNAc(b1-3)Gal(b1-4)GlcNAc(b1-3)Gal(b1-4)GlcNAc(b1-2)Man(a1-3)]Man(b1-4)GlcNAc(b1-4)[Fuc(a1-6)]GlcNAc
# Outline: as §1
# [15] = target: Gal(b1-4)GlcNAc(b1-3)Gal(b1-4)GlcNAc(b1-3)Gal(b1-4)GlcNAc(b1-3)Gal(b1-4)GlcNAc(b1-2)Man(a1-3)[Gal(b1-4)GlcNAc(b1-3)Gal(b1-4)GlcNAc(b1-3)Gal(b1-4)GlcNAc(b1-3)Gal(b1-4)GlcNAc(b1-2)Man(a1-6)]Man(b1-4)GlcNAc(b1-4)GlcNAc
# Outline: as §1
# [16] = target: Gal(b1-4)GlcNAc(b1-3)Gal(b1-4)GlcNAc(b1-3)Gal(b1-4)GlcNAc(b1-3)Gal(b1-4)GlcNAc(b1-2)Man(a1-3)[Gal(b1-4)GlcNAc(b1-3)Gal(b1-4)GlcNAc(b1-3)Gal(b1-4)GlcNAc(b1-3)Gal(b1-4)GlcNAc(b1-2)Man(a1-6)]Man(b1-4)GlcNAc(b1-4)[Fuc(a1-6)]GlcNAc
# Outline: as §1
# [17] = target: Gal(b1-4)GlcNAc(b1-3)Gal(b1-4)GlcNAc(b1-3)Gal(b1-4)GlcNAc(b1-3)Gal(b1-4)GlcNAc(b1-2)[Gal(b1-4)GlcNAc(b1-3)Gal(b1-4)GlcNAc(b1-3)Gal(b1-4)GlcNAc(b1-3)Gal(b1-4)GlcNAc(b1-6)]Man(a1-6)[Gal(b1-4)GlcNAc(b1-3)Gal(b1-4)GlcNAc(b1-3)Gal(b1-4)GlcNAc(b1-3)Gal(b1-4)GlcNAc(b1-2)Man(a1-3)]Man(b1-4)GlcNAc(b1-4)[Fuc(a1-6)]GlcNAc
# Outline: as §1
# [18] = target: Gal(b1-4)GlcNAc(b1-3)Gal(b1-4)GlcNAc(b1-3)Gal(b1-4)GlcNAc(b1-3)Gal(b1-4)GlcNAc(b1-3)Gal(b1-4)GlcNAc(b1-2)Man(a1-3)[Gal(b1-4)GlcNAc(b1-3)Gal(b1-4)GlcNAc(b1-3)Gal(b1-4)GlcNAc(b1-3)Gal(b1-4)GlcNAc(b1-3)Gal(b1-4)GlcNAc(b1-2)Man(a1-6)]Man(b1-4)GlcNAc(b1-4)GlcNAc
# Outline: as §1
# [19] = target: Gal(b1-4)GlcNAc(b1-3)Gal(b1-4)GlcNAc(b1-3)Gal(b1-4)GlcNAc(b1-3)Gal(b1-4)GlcNAc(b1-3)Gal(b1-4)GlcNAc(b1-2)Man(a1-3)[Gal(b1-4)GlcNAc(b1-3)Gal(b1-4)GlcNAc(b1-3)Gal(b1-4)GlcNAc(b1-3)Gal(b1-4)GlcNAc(b1-3)Gal(b1-4)GlcNAc(b1-2)Man(a1-6)]Man(b1-4)GlcNAc(b1-4)[Fuc(a1-6)]GlcNAc
# Outline: as §1
# [20] = target: Gal(b1-4)GlcNAc(b1-3)Gal(b1-4)GlcNAc(b1-3)Gal(b1-4)GlcNAc(b1-3)Gal(b1-4)GlcNAc(b1-3)Gal(b1-4)GlcNAc(b1-2)[Gal(b1-4)GlcNAc(b1-3)Gal(b1-4)GlcNAc(b1-3)Gal(b1-4)GlcNAc(b1-3)Gal(b1-4)GlcNAc(b1-3)Gal(b1-4)GlcNAc(b1-6)]Man(a1-6)[Gal(b1-4)GlcNAc(b1-3)Gal(b1-4)GlcNAc(b1-3)Gal(b1-4)GlcNAc(b1-3)Gal(b1-4)GlcNAc(b1-3)Gal(b1-4)GlcNAc(b1-2)Man(a1-3)]Man(b1-4)GlcNAc(b1-4)[Fuc(a1-6)]GlcNAc
# Outline: as §1
# [21] = target: Gal(b1-4)GlcNAc(b1-3)Gal(b1-4)GlcNAc(b1-3)Gal(b1-4)GlcNAc(b1-3)Gal(b1-4)GlcNAc(b1-3)Gal(b1-4)GlcNAc(b1-3)Gal(b1-4)GlcNAc(b1-2)Man(a1-3)[Gal(b1-4)GlcNAc(b1-3)Gal(b1-4)GlcNAc(b1-3)Gal(b1-4)GlcNAc(b1-3)Gal(b1-4)GlcNAc(b1-3)Gal(b1-4)GlcNAc(b1-3)Gal(b1-4)GlcNAc(b1-2)Man(a1-6)]Man(b1-4)GlcNAc(b1-4)GlcNAc
# Outline: as §1
# [22] = target: Gal(b1-4)GlcNAc(b1-3)Gal(b1-4)GlcNAc(b1-3)GalNAc
# Outline: as §1
# [23] = target: Gal(b1-4)GlcNAc(b1-3)Gal(b1-4)GlcNAc(b1-3)[Gal(b1-4)GlcNAc(b1-3)Gal(b1-4)GlcNAc(b1-6)]GalNAc
# Outline: as §1
binder,measurement,setting,value
EULS2 M4 (Oryza sativa) (protein) MVYCRANPNYAMTARNGAVVLAPANPKDEYQHWIKDMRWSTSIKDEEGYPAFALVNKATGQAIKHSLGQSHPVRLVPYNPEVMDESVLWTESRDVGNGFRCIRMVNNIYLNFDAFHGDKYHGGVRDGTDIVLWKWCEGDSLRWKIQPYYILEQKLISEEDLNSAVDHHHHHH,glycan array binding signal (z-score),[1],-0.504
same,glycan array binding signal (z-score),[2],0.562
same,glycan array binding signal (z-score),[3],-0.272
same,glycan array binding signal (z-score),[4],-0.312
same,glycan array binding signal (z-score),[5],-0.382
same,glycan array binding signal (z-score),[6],-0.418
same,glycan array binding signal (z-score),[7],0.42
same,glycan array binding signal (z-score),[8],-0.23
same,glycan array binding signal (z-score),[9],6.97
same,glycan array binding signal (z-score),[10],0.005
same,glycan array binding signal (z-score),[11],-0.23
same,glycan array binding signal (z-score),[12],0.791
same,glycan array binding signal (z-score),[13],-0.496
same,glycan array binding signal (z-score),[14],0.009
same,glycan array binding signal (z-score),[15],-0.04
same,glycan array binding signal (z-score),[16],-0.26
same,glycan array binding signal (z-score),[17],0.025
same,glycan array binding signal (z-score),[18],-0.273
same,glycan array binding signal (z-score),[19],0.302
same,glycan array binding signal (z-score),[20],4.92
same,glycan array binding signal (z-score),[21],-0.344
same,glycan array binding signal (z-score),[22],0.083
same,glycan array binding signal (z-score),[23],0.569
